Results: the supplement of paper PMC6609913
Counter-ions that a name gives are not always drawn. ± gives the standard deviation of the averaged measurements. Over roughly 1,300 compounds, “normalised cell viability” has its median near 1; the lowest 2% begin near 0.14. The list shows a part of the results.

Tested on: V-C8 (BRCA2-deficient hamster cells)
Assay: normalised cell viability (fraction of plate median); higher = more viable cells (less toxic)
Details: 5 µM
In short: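 Library drugs, held as 10 mM stocks in DMSO, were diluted to 5 μM in 100 μl medium and added to 96-well plates of V-C8 hamster cells, either lacking BRCA2 or with BRCA2 restored, 24 h after seeding. Plates ran for 3 days (screen 1) or 6 days (screen 2), alongside solvent-only wells. Viability came from a resazurin readout, median-plate normalised, as the mean of triplicate wells.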

## CN(C)CCCN1c2ccccc2Sc2ccc(Cl)cc21 [Chlorpromazine hydrochloride]
Treatment time: 3 days
  normalised cell viability: 0.571 ± 0.11
Treatment time: 6 days
  normalised cell viability: 0.642 ± 0.017

## COc1ccc(CC2c3cc(OC)c(OC)cc3CC[N+]2(C)CCC(=O)OCCCCCOC(=O)CC[N+]2(C)CCc3cc(OC)c(OC)cc3C2Cc2ccc(OC)c(OC)c2)cc1OC (configuration not stated) [Atracurium besylate]
Treatment time: 3 days
  normalised cell viability: 0.948 ± 0.059
Treatment time: 6 days
  normalised cell viability: 0.979 ± 0.046

## CC(=O)[C@H]1CC[C@H]2[C@@H]3CC=C4C[C@@H](O)CC[C@]4(C)[C@H]3CC[C@]12C [Pregnenolone]
Treatment time: 3 days
  normalised cell viability: 1.05 ± 0.06
Treatment time: 6 days
  normalised cell viability: 1.06 ± 0.03

## CCN(CCO)CCCC(C)Nc1ccnc2cc(Cl)ccc12 (configuration not stated) [Hydroxychloroquine sulfate]
Treatment time: 3 days
  normalised cell viability: 0.365 ± 0.05
Treatment time: 6 days
  normalised cell viability: 0.524 ± 0.048

## CCCCN1CCCCC1C(=O)Nc1c(C)cccc1C (configuration not stated) [Bupivacaine hydrochloride]
Treatment time: 3 days
  normalised cell viability: 0.967 ± 0.029
Treatment time: 6 days
  normalised cell viability: 1.01 ± 0.044

## CCOC(=O)NNc1nncc2ccccc12 [Todralazine hydrochloride]
Treatment time: 3 days
  normalised cell viability: 0.913 ± 0.039
Treatment time: 6 days
  normalised cell viability: 1.04 ± 0.061

## CC(C)(C)c1ccc(C(O)CCCN2CCC(C(O)(c3ccccc3)c3ccccc3)CC2)cc1 (configuration not stated) [Terfenadine]
Treatment time: 3 days
  normalised cell viability: 0.13 ± 0.0051
Treatment time: 6 days
  normalised cell viability: 0.1 ± 0.0041

## CC(COc1ccccc1)NC(C)C(O)c1ccc(O)cc1 (configuration not stated) [Isoxsuprine hydrochloride]
Treatment time: 3 days
  normalised cell viability: 1.02 ± 0.031
Treatment time: 6 days
  normalised cell viability: 0.99 ± 0.014

## CCCCNc1c(C(=O)OCC)c(C)nc2c1cnn2CC [Tracazolate hydrochloride]
Treatment time: 3 days
  normalised cell viability: 0.947 ± 0.034
Treatment time: 6 days
  normalised cell viability: 1.03 ± 0.013

## CCCCC1(COC(=O)CCC(=O)O)C(=O)N(c2ccccc2)N(c2ccccc2)C1=O [Suxibuzone]
Treatment time: 3 days
  normalised cell viability: 0.986 ± 0.024
Treatment time: 6 days
  normalised cell viability: 1.07 ± 0.1

## COc1cc(NC(C)CCCN)c2ncccc2c1 (configuration not stated) [Primaquine diphosphate]
Treatment time: 3 days
  normalised cell viability: 0.937 ± 0.03
Treatment time: 6 days
  normalised cell viability: 0.964 ± 0.07

## COc1cc(-c2ccc(=O)[nH]n2)ccc1OC(F)F [Zardaverine]
Treatment time: 3 days
  normalised cell viability: 0.923 ± 0.023
Treatment time: 6 days
  normalised cell viability: 0.93 ± 0.044

## Cc1cc(-c2ccccc2)nnc1NCCN1CCOCC1 [Minaprine dihydrochloride]
Treatment time: 3 days
  normalised cell viability: 1.07 ± 0.012
Treatment time: 6 days
  normalised cell viability: 1.01 ± 0.025

## NC(N)=Nc1nc(CSCC/C(N)=N/S(N)(=O)=O)cs1 [Famotidine]
Treatment time: 3 days
  normalised cell viability: 1.14 ± 0.06
Treatment time: 6 days
  normalised cell viability: 1.04 ± 0.017

## CC1=C(/C=C/C(C)=C/C=C/C(C)=C\C(=O)O)C(C)(C)CCC1 [Isotretinoin]
Treatment time: 3 days
  normalised cell viability: 1.02 ± 0.017
Treatment time: 6 days
  normalised cell viability: 1.02 ± 0.033

## CC/C(=C(/CC)c1ccc(O)cc1)c1ccc(O)cc1 [Diethylstilbestrol]
Treatment time: 3 days
  normalised cell viability: 1.06 ± 0.029
Treatment time: 6 days
  normalised cell viability: 0.979 ± 0.075

## CSc1ccc2c(c1)N(CCC1CCCCN1C)c1ccccc1S2 (configuration not stated) [Thioridazine hydrochloride]
Treatment time: 3 days
  normalised cell viability: 0.121 ± 0.0035
Treatment time: 6 days
  normalised cell viability: 0.0951 ± 0.0067

## CN(C)[C@@H]1C(O)=C(C(N)=O)C(=O)[C@@]2(O)C(O)=C3C(=O)c4c(O)cccc4[C@@](C)(O)[C@H]3[C@H](O)[C@@H]12 [Oxytetracycline dihydrate]
Treatment time: 3 days
  normalised cell viability: 0.991 ± 0.015
Treatment time: 6 days
  normalised cell viability: 0.945 ± 0.05

## Cc1ccsc1/C=C/C1=NCCCN1C [Morantel tartrate]
Treatment time: 3 days
  normalised cell viability: 0.989 ± 0.043
Treatment time: 6 days
  normalised cell viability: 1.05 ± 0.058

## CN(C)c1ccc(O)c2c1C[C@H]1C[C@H]3[C@H](N(C)C)C(O)=C(C(N)=O)C(=O)[C@@]3(O)C(O)=C1C2=O [Minocycline hydrochloride]
Treatment time: 3 days
  normalised cell viability: 0.806 ± 0.009
Treatment time: 6 days
  normalised cell viability: 0.886 ± 0.022

## CCN(CC)CCNc1ccc(CO)c2sc3ccccc3c(=O)c12 [Hycanthone]
Treatment time: 3 days
  normalised cell viability: 0.182 ± 0.0069
Treatment time: 6 days
  normalised cell viability: 0.183 ± 0.0059

## O=C(COc1ccc(Cl)cc1)N1CCN(Cc2ccc3c(c2)OCO3)CC1 [Fipexide hydrochloride]
Treatment time: 3 days
  normalised cell viability: 1.07 ± 0.037
Treatment time: 6 days
  normalised cell viability: 0.95 ± 0.055

## CNC(C)CCC=C(C)C (configuration not stated) [Isometheptene mucate]
Treatment time: 3 days
  normalised cell viability: 1.07 ± 0.044
Treatment time: 6 days
  normalised cell viability: 1.02 ± 0.078

## CN(Cc1cnc2nc(N)nc(N)c2n1)c1ccc(C(=O)N[C@@H](CCC(=O)O)C(=O)O)cc1 (racemic) [Amethopterin (R,S)]
Treatment time: 3 days
  normalised cell viability: 0.287 ± 0.021
Treatment time: 6 days
  normalised cell viability: 0.238 ± 0.0053

## CN(Cc1cnc2nc(N)nc(N)c2n1)c1ccc(C(=O)N[C@@H](CCC(=O)O)C(=O)O)cc1 [Methotrexate]
Treatment time: 3 days
  normalised cell viability: 0.293 ± 0.011
Treatment time: 6 days
  normalised cell viability: 0.261 ± 0.021

## Nc1nc(NC2CC2)c2ncn([C@H]3C=C[C@@H](CO)C3)c2n1 [Abacavir Sulfate]
Treatment time: 3 days
  normalised cell viability: 1.02 ± 0.1
Treatment time: 6 days
  normalised cell viability: 0.937 ± 0.12

## CCOC(=O)c1ccc(N)cc1 [Benzocaine]
Treatment time: 3 days
  normalised cell viability: 0.791 ± 0.027
Treatment time: 6 days
  normalised cell viability: 0.927 ± 0.074

## OC(CCCN1CCCCC1)(c1ccccc1)c1ccccc1 [Diphenidol hydrochloride]
Treatment time: 3 days
  normalised cell viability: 1.06 ± 0.037
Treatment time: 6 days
  normalised cell viability: 1.05 ± 0.031

## CCN(CC)CCOC(=O)C(c1ccccc1)c1ccccc1 [Adiphenine hydrochloride]
Treatment time: 3 days
  normalised cell viability: 0.976 ± 0.021
Treatment time: 6 days
  normalised cell viability: 1.02 ± 0.039

## Cc1ccc(S(=O)(=O)NC(=O)NN2CCCCCC2)cc1 [Tolazamide]
Treatment time: 3 days
  normalised cell viability: 0.997 ± 0.087
Treatment time: 6 days
  normalised cell viability: 0.992 ± 0.051

## C[C@]12CC[C@@H]3c4ccc(OS(=O)(=O)O)cc4CC[C@H]3[C@@H]1CCC2=O [Estropipate]
Treatment time: 3 days
  normalised cell viability: 1.04 ± 0.034
Treatment time: 6 days
  normalised cell viability: 1.01 ± 0.057
